In all, about 310,000 compounds went through this assay and about 2,200 (0.71%) showed an effect of 50% or more. The effect is printed as a negative number. Some of the results follow.

This assay deals with human ether-à-go-go-related gene (hERG) potassium channel (human, UniProt Q12809). The experiment in a line: primary screen, population patch clamp on CHO cells stably expressing hERG.
Chain of human ether-à-go-go-related gene (hERG) potassium channel (Q12809 whole entry, looked up): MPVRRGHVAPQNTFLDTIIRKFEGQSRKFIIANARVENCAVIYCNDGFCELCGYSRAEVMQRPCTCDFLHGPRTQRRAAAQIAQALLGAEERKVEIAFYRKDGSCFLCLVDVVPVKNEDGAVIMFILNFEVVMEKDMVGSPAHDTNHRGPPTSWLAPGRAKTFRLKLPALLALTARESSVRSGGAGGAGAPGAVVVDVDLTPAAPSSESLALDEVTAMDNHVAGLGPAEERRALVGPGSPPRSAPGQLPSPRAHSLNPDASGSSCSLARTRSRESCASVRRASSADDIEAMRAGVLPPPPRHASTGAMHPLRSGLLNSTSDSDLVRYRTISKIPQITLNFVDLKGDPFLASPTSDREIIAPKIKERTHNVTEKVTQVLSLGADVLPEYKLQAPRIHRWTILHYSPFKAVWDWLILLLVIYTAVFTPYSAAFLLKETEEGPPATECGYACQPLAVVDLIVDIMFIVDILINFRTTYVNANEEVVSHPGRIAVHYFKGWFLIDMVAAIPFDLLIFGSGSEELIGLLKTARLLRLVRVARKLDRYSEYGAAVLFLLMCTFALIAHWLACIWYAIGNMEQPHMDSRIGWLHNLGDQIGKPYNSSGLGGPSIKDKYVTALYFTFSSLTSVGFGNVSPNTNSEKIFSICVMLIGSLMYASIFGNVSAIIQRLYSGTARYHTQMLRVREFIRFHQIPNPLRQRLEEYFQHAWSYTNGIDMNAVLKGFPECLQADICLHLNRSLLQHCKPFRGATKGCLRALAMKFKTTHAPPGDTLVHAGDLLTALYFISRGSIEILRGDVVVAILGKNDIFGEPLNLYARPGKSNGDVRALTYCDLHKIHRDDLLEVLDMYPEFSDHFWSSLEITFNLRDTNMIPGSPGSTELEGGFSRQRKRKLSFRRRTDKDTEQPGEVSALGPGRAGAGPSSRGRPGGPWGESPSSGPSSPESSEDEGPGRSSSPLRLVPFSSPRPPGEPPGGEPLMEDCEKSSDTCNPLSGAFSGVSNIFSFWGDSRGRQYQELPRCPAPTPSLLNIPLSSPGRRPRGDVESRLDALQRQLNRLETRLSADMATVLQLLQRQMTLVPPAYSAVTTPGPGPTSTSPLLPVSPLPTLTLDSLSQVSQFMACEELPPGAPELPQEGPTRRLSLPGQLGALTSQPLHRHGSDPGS
`CC(OC(=O)c1nn(C)c(=O)c2ccccc12)C(=O)Nc1ccc(S(N)(=O)=O)cc1` (centres unmarked): the “hERG current change (%, negative = inhibition) at 1uM” value amounted to 12.5%.

For `O=C1COc2ccc(C(=O)/C=C/c3ccccc3)cc2N1`, the “hERG current change (%, negative = inhibition) at 1uM” value was determined as 14.5%.

Take `Cl.c1ccc(SCCOCCN2CCOCC2)cc1`: the “hERG current change (%, negative = inhibition) at 1uM” value came out at 11.5%.

`NC(=O)c1cccc2cc3ccccc3cc12`: the “hERG current change (%, negative = inhibition) at 1uM” value is reported as 5.6%.

In the case of `COc1cc(CN2CCC(Cc3ccccc3)CC2)cc(OC)c1OC.O=C(O)C(=O)O`, the “hERG current change (%, negative = inhibition) at 1uM” value is recorded as -12%.

Consider `CSC1=NC(C)(C)CC2(C)Nc3ccccc3N12` (centres unmarked), for which the “hERG current change (%, negative = inhibition) at 1uM” value turned out to be 15.1%.

As to `Cc1ccc(NC(=O)CN(CCc2ccccc2)S(C)(=O)=O)cc1`, the “hERG current change (%, negative = inhibition) at 1uM” value is listed as 9.01%.

For `CCOC(=O)Nc1ccc2c(CN3CCN(S(=O)(=O)c4ccc(C(C)C)cc4)CC3)cc(=O)oc2c1`, the “hERG current change (%, negative = inhibition) at 1uM” value was 17.9%.

As to `Cc1ccc(CNC(=O)c2ccc(C#CC(C)(C)O)s2)cc1`, the “hERG current change (%, negative = inhibition) at 1uM” value came to 0.607%.

With `CN1CC(C(=O)c2cccs2)C(c2ccc(Cl)cc2)C1` (centres unmarked), the “hERG current change (%, negative = inhibition) at 1uM” value is given as 2.44%.

Consider `O=S(=O)(Nc1ccccc1N1CCCCC1)c1ccc(Cl)s1`, for which the “hERG current change (%, negative = inhibition) at 1uM” value is on record as 3.78%.

Take `Cc1nn(-c2ccccc2)c(C)c1C(=O)NCc1ccccc1F`: the “hERG current change (%, negative = inhibition) at 1uM” value is reported as 16.1%.

Take `Cc1nnc(NC(=O)C2=COCCO2)s1`: the “hERG current change (%, negative = inhibition) at 1uM” value is recorded as 12.2%.

Take `CC1CN(C(=O)COC(=O)c2ccc(N(C)C)cc2)CC(C)O1` (centres unmarked): the “hERG current change (%, negative = inhibition) at 1uM” value turned out to be 8.16%.

Turning to `CC(=O)O[C@@]12CO[C@@H]1C[C@H](O)[C@@]1(C)C(=O)[C@H](O)C3=C(C)[C@@H](OC(=O)[C@H](O)[C@@H](NC(=O)OC(C)(C)C)c4ccccc4)C[C@](O)([C@@H](OC(=O)c4ccccc4)[C@H]21)C3(C)C`, the “hERG current change (%, negative = inhibition) at 1uM” value is recorded as 0.463%.

As to `Cc1cc(OCC(=O)c2ccc(C(F)(F)F)cc2)n2cnnc2n1`, the “hERG current change (%, negative = inhibition) at 1uM” value is reported as -2.11%.

Take `Cc1ccccc1C(=O)N1CCC(C(=O)OCc2ccccc2Cl)CC1`: the “hERG current change (%, negative = inhibition) at 1uM” value is 14.6%.

As for `CC(C)(C)n1nnnc1C(c1cccs1)N(Cc1cccnc1)Cc1ccccc1Cl` (centres unmarked), the “hERG current change (%, negative = inhibition) at 1uM” value is -8.83%.

On to `O=C(c1ccccn1)N1CCN(C(=O)c2ccccn2)CC1`, for which the “hERG current change (%, negative = inhibition) at 1uM” value is reported as 10.7%.

`COc1ccc(-c2cn3nc(SCC(=O)NCC4CCCO4)ccc3n2)cc1` (centres unmarked): the “hERG current change (%, negative = inhibition) at 1uM” value is listed as 13.5%.

With `CCOC(=O)c1nnn(-c2nonc2N)c1CN(C)C1CCCCC1`, the “hERG current change (%, negative = inhibition) at 1uM” value is listed as 9.33%.

Turning to `COc1ccc(NC(=O)CN2CCCC2)cc1`, the “hERG current change (%, negative = inhibition) at 1uM” value was determined as 14.6%.

For `O=C(Nc1nnc(S(=O)(=O)N2CCCCCC2)s1)c1cccc(Br)c1`, the “hERG current change (%, negative = inhibition) at 1uM” value was determined as 16.4%.

In the case of `CCOC(=O)c1cc(NC(=O)c2ccco2)ccc1N1CCOCC1`, the “hERG current change (%, negative = inhibition) at 1uM” value is given as 0.851%.

Consider `COc1cc2c(=O)n(CCC(=O)NCC3CCCO3)c(=O)n(CC(=O)Nc3ccccc3C)c2cc1OC` (centres unmarked), for which the “hERG current change (%, negative = inhibition) at 1uM” value was -4.95%.

Take `COc1ccc(NC(=O)CN2C(=O)CSc3ccc(S(=O)(=O)N4CCCC4)cc32)cc1OC`: the “hERG current change (%, negative = inhibition) at 1uM” value amounted to 10.8%.

With `O=C(C[n+]1cc(Br)cc(Br)c1)c1ccc(Cl)cc1.[Br-]`, the “hERG current change (%, negative = inhibition) at 1uM” value is on record as 2.66%.

As for `Cc1cccc(OCC(=O)N2CCC(c3ccccc3)C2)c1` (centres unmarked), the “hERG current change (%, negative = inhibition) at 1uM” value was determined as 7.51%.

In the case of `O=C(NC1CC(=O)c2sccc21)c1cccc(C(F)(F)F)c1` (centres unmarked), the “hERG current change (%, negative = inhibition) at 1uM” value came out at 5.54%.

Take `CC(On1c(-c2ccccc2)nc2ccc(Cl)cc21)C(=O)O` (centres unmarked): the “hERG current change (%, negative = inhibition) at 1uM” value amounted to 24.9%.

Regarding `Cc1cc(NC(=O)CSc2nnnn2C)n(-c2ccccc2)n1`, the “hERG current change (%, negative = inhibition) at 1uM” value is 0.916%.

As for `CCOC(=O)C1(Cc2ccccc2C(F)(F)F)CCN(C(C)CCn2cccn2)CC1` (centres unmarked), the “hERG current change (%, negative = inhibition) at 1uM” value is given as -40.8%.

As for `COC(=O)c1cc(S(=O)(=O)N2CCN(Cc3ccccc3)CC2)cn1C`, the “hERG current change (%, negative = inhibition) at 1uM” value was 6.69%.

Take `COCCCNC(=O)C(C#N)c1nc2ccccc2nc1N1CCCC1` (centres unmarked): the “hERG current change (%, negative = inhibition) at 1uM” value is -2.53%.

Regarding `CC(C)CC(C(=O)OCC(=O)c1c(N)n(C)c(=O)n(C)c1=O)N1C(=O)c2ccccc2C1=O` (centres unmarked), the “hERG current change (%, negative = inhibition) at 1uM” value turned out to be 2.01%.

For the compound `CC(C)C(NS(=O)(=O)c1cccc2nsnc12)C(=O)N1CCn2c1nc1ccccc12` (centres unmarked), the “hERG current change (%, negative = inhibition) at 1uM” value is listed as 4.84%.

As for `C=CCNC(=S)N/N=C(\C)c1ccccn1`, the “hERG current change (%, negative = inhibition) at 1uM” value is reported as -10.3%.

With `CCOc1cc(CNCC(O)c2ccccc2)cc(Cl)c1OC.Cl` (centres unmarked), the “hERG current change (%, negative = inhibition) at 1uM” value is recorded as -0.978%.

For the compound `Cc1cc(C)n(CC(=O)O)n1`, the “hERG current change (%, negative = inhibition) at 1uM” value is reported as 11%.

As for `O=C(COC(=O)CNC(=O)c1ccc(Cl)cc1)Nc1ccc2c(c1)OCCO2`, the “hERG current change (%, negative = inhibition) at 1uM” value stood at 11.8%.

Consider `Cc1onc(-c2ccccc2)c1C(=O)NC(C)C`, for which the “hERG current change (%, negative = inhibition) at 1uM” value is on record as 11.7%.

Consider `Cc1cc(C)c(S(=O)(=O)Nc2cc(C)on2)c(C)c1`, for which the “hERG current change (%, negative = inhibition) at 1uM” value was determined as 1.59%.

For the compound `CC(=O)N1CCN(C(=O)CCCNC(=O)c2ccc(Cl)cc2)CC1`, the “hERG current change (%, negative = inhibition) at 1uM” value is 12.7%.

As to `O=C(O)/C=C/c1ccc(S(=O)(=O)N2CCCCCC2)cc1`, the “hERG current change (%, negative = inhibition) at 1uM” value amounted to 12%.

For the origin of these results see PMC4336329 (PLoS ONE, 2015).
